Results reported in the supplement of paper PMC3334620.
The full ranking holds about 33,000 sequences; the median of “E-score (-0.5 to 0.5)” is about -0.043, and the highest 2% start at about 0.37. The list shows a part of the results.

These sequences were tested against T1, Upc2 (UniProt Q12151) (assay: PBM E-score (8-mer binding enrichment) (E-score (-0.5 to 0.5)); higher = stronger / more preferred TF binding; most listed sequences are background and not binding sites). Conditions: protein concentration: 200 nM; construct: GST-full length.
T1 sequence: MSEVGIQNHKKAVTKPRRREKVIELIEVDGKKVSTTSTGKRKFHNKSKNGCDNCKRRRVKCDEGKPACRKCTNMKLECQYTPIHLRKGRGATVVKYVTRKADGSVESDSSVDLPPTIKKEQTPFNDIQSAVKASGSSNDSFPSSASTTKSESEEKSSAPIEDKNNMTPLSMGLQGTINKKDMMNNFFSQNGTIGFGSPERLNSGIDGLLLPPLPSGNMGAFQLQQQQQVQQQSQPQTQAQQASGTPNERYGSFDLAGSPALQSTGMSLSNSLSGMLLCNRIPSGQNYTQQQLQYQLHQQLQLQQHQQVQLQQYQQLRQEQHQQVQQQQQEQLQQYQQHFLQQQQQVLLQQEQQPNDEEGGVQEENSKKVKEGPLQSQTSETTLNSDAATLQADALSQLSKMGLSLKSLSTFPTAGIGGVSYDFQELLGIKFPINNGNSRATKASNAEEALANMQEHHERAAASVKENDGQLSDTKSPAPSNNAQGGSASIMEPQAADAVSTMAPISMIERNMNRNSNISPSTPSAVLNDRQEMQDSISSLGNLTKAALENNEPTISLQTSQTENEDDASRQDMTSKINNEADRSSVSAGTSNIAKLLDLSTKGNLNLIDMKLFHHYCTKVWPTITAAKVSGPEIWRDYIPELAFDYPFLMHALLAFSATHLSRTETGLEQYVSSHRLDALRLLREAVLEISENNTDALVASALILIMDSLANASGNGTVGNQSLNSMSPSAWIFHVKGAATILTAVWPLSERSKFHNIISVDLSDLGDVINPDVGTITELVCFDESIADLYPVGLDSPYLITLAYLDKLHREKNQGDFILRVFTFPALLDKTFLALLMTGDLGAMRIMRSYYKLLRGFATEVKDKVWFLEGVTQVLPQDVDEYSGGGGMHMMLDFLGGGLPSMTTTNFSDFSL
Experimental: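 Universal 'all 10-mer' protein binding microarrays (Agilent AMADID 015681) probed with GST-tagged S. cerevisiae TFs (full-length or DBD) made by in vitro transcription/translation (PURExpress), about 100-200 nM. Bound TF was detected with fluorescent anti-GST. Each ungapped 8-mer (which stands for itself and its reverse complement) is scored by the PBM enrichment score (E-score), a modified Wilcoxon-Mann-Whitney statistic from -0.5 to +0.5, computed with the Universal PBM Analysis Suite. Scale: above 0.35 generally sequence-specific binding.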

Row | Sequence | PBM E-score
1 | ACGTAATG | 0.0828
2 | CTGTCTCA | -0.149
3 | CAATATCC | -0.0571
4 | CCGGCTCC | -0.0858
5 | AGGGCCAC | -0.0238
6 | AGTGCGGA | 0.0998
7 | GCGTTTTA | 0.206
8 | CACGATAC | 0.197
9 | AATTAAAT | -0.182
10 | CAGCCGAG | -0.115
11 | CCATTTCC | -0.129
12 | AGACTCCA | -0.0995
13 | AAGTACCA | 0.136
14 | TATAGGCA | -0.0232
15 | TAGTTGAA | 0.0322
16 | TCACGCCA | -0.044
17 | GTCCAAGA | -0.308
18 | AATAATAA | 0.0771
19 | CGTCCACC | -0.188
20 | AAAACAAT | -0.0771
21 | CTCTCAAA | 0.0587
22 | AAGCTGGT | -0.0392
23 | TGAAGCCA | -0.068
24 | ATAACAGC | -0.0133
25 | CCACGTTC | 0.0171

Row | Sequence | PBM E-score
26 | ATTGCTTG | -0.0878
27 | GGTAAGGA | -0.19
28 | GCGAGCGC | 0.0844
29 | GCACTCAC | -0.117
30 | GGCTTAAA | 0.113
31 | CATTGGGC | -0.0682
32 | ATCCTTCA | 0.0106
33 | GACTTCAC | -0.0993
34 | TCTAGAGA | -0.274
35 | CGTATTAG | 0.353
36 | AAAAGGTT | -0.118
37 | ATTCATCC | -0.0145
38 | AGATAGTC | -0.0153
39 | CCATAATA | -0.0867
40 | CCCTGAGG | -0.181
41 | CAGTGATC | -0.128
42 | CGTGACCC | 0.0582
43 | AGTGGCCG | -0.212
44 | CCCATCGC | -0.0313
45 | GTTTCTTA | 0.132
46 | GAATTACA | 0.0129
47 | GCGGGAAA | 0.126
48 | ATGTCGGA | 0.0657
49 | GGCTGAAA | -0.045
50 | CTCTCGCC | -0.112

Row | Sequence | PBM E-score
51 | AGATCGAA | -0.102
52 | ACCGTCCT | -0.207
53 | AAATTGGA | -0.0431
54 | ACCAGGTA | -0.0537
55 | AACGATTG | 0.391
56 | AGGTAGTG | -0.00444
57 | CCTTGGAG | -0.122
58 | ACGGTTAT | 0.329
59 | CAATGAGA | -0.156
60 | CACACGTA | 0.0642
61 | CCGTTGCG | 0.173
62 | CGGAGGGA | -0.178
63 | GAGAAACA | -0.0828
64 | GAGTGTGA | 0.156
65 | CGGCCAAC | -0.0371
66 | ATCCCTAA | -0.132
67 | GCAGCGGC | -0.0934
68 | AAAGCCGC | 0.0199
69 | CGCAAAGC | 0.188
70 | ACGAGGGA | 0.364
71 | CTCCGAAA | -0.108
72 | GAGATGGA | -0.151
73 | CAAGAACA | 0.00235
74 | ATCTCCGC | -0.17
75 | GGTATGTA | -0.116

Row | Sequence | PBM E-score
76 | CCACTTGC | -0.312
77 | ACCCATCT | -0.0321
78 | CGACTCGA | 0.0612
79 | AAATGAAA | 0.189
80 | AGGCTTAA | -0.0508
81 | CGTCGGAA | 0.107
82 | AGGAACCT | -0.121
83 | ATGTTATA | 0.158
84 | ATAGGCAA | -0.149
85 | ACTCGCTC | 0.231
86 | GACTGTGA | -0.208
87 | AGCCCATA | -0.137
88 | CTAGATGC | -0.229
89 | AGGATTCC | -0.263
90 | GGCCGCCA | -0.268
91 | CCATCTCC | -0.0952
92 | AGCTCTTA | 0.0489
93 | CCGCGTTA | 0.144
94 | ATCCAGTG | -0.28
95 | GCGCTCGA | 0.0495
96 | TAATTCTA | 0.114
97 | CTCCTGGA | -0.243
98 | GCCGGACA | -0.0784
99 | ACGTCGGG | 0.187
100 | GATTAGGA | -0.00353

Row | Sequence | PBM E-score
101 | CTCAGGAA | -0.135
102 | AGTTTAAG | 0.0878
103 | CTGAGACA | -0.143
104 | TTAAGCAA | 0.00404
105 | GGTGACAA | -0.0338
106 | GCATCACC | -0.29
107 | TTCCTAAA | -0.119
108 | AGGTGAGG | -0.0489
109 | CCCGGCAA | -0.034
110 | GCCCTGCC | -0.129
111 | AGAAGTCC | 0.0121
112 | CTGAACGC | 0.121
113 | CAATACGC | 0.0949
114 | CCGGCCGG | 0.125
115 | AGGTATTA | -0.0679
116 | ACTACTAG | -0.131
117 | GCTTGCCA | 0.017
118 | AGCGCGCT | 0.178
119 | TCGGCGAA | -0.0272
120 | ACTCTAAA | -0.00671
121 | CTGAAGTC | 0.05
122 | CATAATCG | 0.141
123 | ATTAAGTC | -0.114
124 | CTACCGCA | -0.234
125 | AAGAGGTG | 0.0382

Row | Sequence | PBM E-score
126 | ATATCGGG | -0.061
127 | AATGAAGT | -0.0664
128 | TCAAATGA | -0.274
129 | GCATACAA | -0.0164
130 | AACGGGAA | 0.229
131 | ACGTGTAG | 0.0435
132 | ACCACGTG | 0.0941
133 | GCATCCCC | 0.00972
134 | GGACTCTA | -0.182
135 | ACGGCGAG | 0.185
136 | TCCTAAGA | -0.156
137 | ATATGATG | -0.22
138 | GTTGTAAA | -0.0684
139 | AGGGCAGC | -0.171
140 | AAACATGG | -0.13
141 | ATGCACAA | 0.00244
142 | ACCAGCGC | 0.0181
143 | GCTTGATA | -0.162
144 | GAATAAAA | 0.193
145 | AGTCACCC | -0.184
146 | CGTCGGTA | 0.138
147 | TGATTCAA | -0.0458
148 | CACATGGA | -0.202
149 | ATGAATAC | 0.124
150 | TCGCCCAA | -0.00958

Row | Sequence | PBM E-score
151 | CAACCGGG | -0.166
152 | TGTGATAA | -0.0434
153 | AAGTGCAA | -0.0117
154 | ATGAGGAC | -0.149
155 | GCCATCGC | -0.184
156 | CGTTTGCC | 0.323
157 | AGATAATG | 0.0805
158 | ATTATTAA | -0.117
159 | CACGCCGG | -0.183
160 | TGAAAAAA | 0.0284
161 | ACAATCGA | 0.0489
162 | ACGCGCGG | 0.0993
163 | CTCATAGA | -0.132
164 | TATACTGA | 0.263
165 | ACAAAGTG | -0.111
166 | CGAGTCGC | 0.159
167 | AAGCGCAT | 0.0677
168 | ACCAATTA | -0.0776
169 | GACAACAC | 0.187
170 | CCCCCCTC | -0.0916
171 | TATAGTAA | 0.15
172 | TAGTACGA | 0.401
